# Data: PubChem BioAssay AID1345083 (National Center for Advancing Translational Sciences (NCATS), 2018)
# In all, about 94,000 compounds went through this assay and about 6,200 (6.6%) were called active. The shares of active, inactive and inconclusive entries below differ from those in the screen. Calls come from the whole dose curve; as a rule, active = well fitted inhibition curve with a large enough effect; inconclusive = small, poorly fitted or top-dose-only effect; inactive = flat fitted curve, though single readings scatter. Potencies beside an inconclusive call are fits to weak or partial responses and may not hold up.
# Assay: Cytotoxic Profiling in HEK 293 Cell Line of Diverse Libraries Using Quantitative High-Throughput Screening; note: nearly all actives have a fitted effect of over 60% in size
# Details: HEK 293 viability, ATP luminescence (CellTiter-Glo), 48-72 h; series mostly up to 115 µM
# How it was run: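 Read-out: CellTiter-Glo ATP luminescence. Cells: HEK 293, 250 cells/well. Exposure: 48 or 72 hr, 37 degree Celsius.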
# Potency is the fitted concentration of half-maximal effect; tags give direction and shape of the fitted curve.
row,SMILES,Potency
1,COc1ccc(F)cc1-c1ccc(CN2CCCCC2C(=O)NCc2cccc(F)c2)cc1 (stereo unspecified),"inconclusive: 25.1 µM [inhibitor, full curve]"
2,COc1ccc(CN[C@@H]2C=C[C@@H](c3c(C)nn(-c4cccc(Br)c4)c3C)C2)cc1,"inconclusive: 22.4 µM [inhibitor, full curve, poor fit]"
3,COc1ccccc1CNC(=O)c1cc2c(s1)CCN(C(=O)c1ccccc1)C2,"inconclusive: 35.5 µM [inhibitor, full curve, poor fit]"
4,COc1cccc(-c2cc(-c3nc(C4CC(=O)N(C5CCCCC5)C4)no3)[nH]n2)c1 (stereo unspecified),"inconclusive: 39.8 µM [inhibitor, partial curve, poor fit]"
5,COc1ccc([C@@H]2CN(Cc3ccc(C#N)cc3)C[C@H]2N(C)C)cc1,inactive
6,CCN1CC(C(=O)N2CCCC(c3ccccc3)(c3ccccc3)C2)CC1=O (stereo unspecified),"inconclusive: 28.2 µM [inhibitor, partial curve, poor fit]"
7,COCc1ccc2c(c1)c(OC(C)(C)C(=O)N1CC(O)C1)nn2CCC(C)C,inactive
8,CCC1Oc2ccc(NC(=O)c3ccc(F)cc3F)cc2CN(Cc2ccc3c(c2)OCO3)C1=O (stereo unspecified),"inconclusive: 79.4 µM [inhibitor, partial curve]"
9,COCCn1c(C)cnc1CCNC(=O)COc1ccccc1,inactive
10,Fc1ccc(-c2cc(CC3(NCc4ccco4)COC3)no2)cc1,active: 89.1 µM
11,CN1C[C@@H](F)[C@@H](OCc2nc3ccc(C(F)(F)F)cc3[nH]2)C1,inactive
12,COCC(=O)N1CCc2nc(C)nc(-c3ccc(OC)cc3)c2C1,inactive
13,CCOC(=O)[C@@H]1CN(S(=O)(=O)c2cccs2)[C@H]2c3ccccc3O[C@@H]12,"inconclusive: 39.8 µM [inhibitor, partial curve]"
14,O=C(c1ccccc1)N1Cc2[nH]cnc2C[C@H]1c1nc(-c2ccncc2)no1,inactive
15,COCC1CN(S(=O)(=O)c2cccc(C#N)c2)CC12CCNCC2 (stereo unspecified),inactive
16,COc1cccc(-c2ccc(CN3CCCC3C(=O)NCc3ccc(C(F)(F)F)cc3)cc2)c1 (stereo unspecified),active: 35.5 µM
17,O=C(O)COc1ccc(-c2nccc3c2C(=O)N(Cc2c[nH]c4ccccc24)CC(COc2ccccc2F)O3)cc1 (stereo unspecified),inactive
18,CCCCOc1ccc(C(=O)N2CCC[C@H]2c2nc(-c3ccccc3Cl)no2)cc1,"inconclusive: 50.1 µM [inhibitor, partial curve, poor fit]"
19,COc1ccc(NC(=O)[C@@H]2C[C@@H](c3cccc(C(F)(F)F)c3)N(C)C2)cc1OC,"inconclusive: 100 µM [inhibitor, partial curve]"
20,O=C(NCC1CC1)c1ccc2nccn2c1,inactive
21,O=C1Nc2ccccc2CN(CC2CC2)C12CCNCC2,inactive
22,CC(C)CCNC(=O)N1CCCC(c2noc(COc3ccccc3F)n2)C1 (stereo unspecified),"inconclusive: 50.1 µM [inhibitor, partial curve, poor fit]"

row,SMILES,Potency
1,COCCN1C(=O)[C@@H]2C[C@@H](CN2Cc2ccc(C#N)cc2)Oc2ccccc21,"inconclusive: 112 µM [inhibitor, partial curve, poor fit]"
2,CCc1nc2c(c(-c3ccc(O)cc3)n1)CN(C(=O)c1ccc(OC)cc1)CC2,"inconclusive: 89.1 µM [inhibitor, single point]"
3,COc1ccc(C(=O)N[C@@H]2CCC[C@@H]2C(=O)N2CCN(c3ccc(Cl)cc3)CC2)cn1,inactive
4,CN(c1ccccc1)c1cc(=O)c2ccnc(-c3ccnn3C)c2o1,"inconclusive: 35.5 µM [inhibitor, partial curve, poor fit]"
5,CCOc1ccc(C2Cn3nnc(-c4nc(-c5cccc(OCC)c5)no4)c3CO2)cc1 (stereo unspecified),inactive
6,COc1ccc(Cl)cc1C(=O)NC1CCN(c2cc(C(F)(F)F)nc(C)n2)CC1,"inconclusive: 35.5 µM [inhibitor, full curve, poor fit]"
7,CN1C[C@@H](NC(=O)c2ccccc2)C[C@H]1c1nc(-c2ccncc2)no1,inactive
8,O=C(c1cc(F)ccc1F)N1CCCC(Cc2nncn2CC2CC2)C1 (stereo unspecified),inactive
9,COCCN1CCCCCC(O)c2cc(C(=O)N3CCCCCC3)ccc21 (stereo unspecified),"inconclusive: 44.7 µM [inhibitor, partial curve]"
10,O=C(Nc1ccc(F)cc1)c1ccc2oc(-c3ccnc(Cl)c3)nc2c1,"inconclusive: 44.7 µM [inhibitor, partial curve]"
11,COc1ccc(-c2nc(-c3ccccc3)nc3c2CN(C(=O)c2ccc(C)cc2)CC3)cc1,"inconclusive: 20 µM [inhibitor, full curve, poor fit]"
12,CC(C)NC(=O)N1CCOC[C@H]1c1ncc(-c2ccc(OC(F)(F)F)cc2)[nH]1,"inconclusive: 89.1 µM [inhibitor, partial curve]"
13,COc1ccc(CCNc2ncnc3c2CN(c2ccccc2F)C(=O)CN3C)cc1,"inconclusive: 50.1 µM [inhibitor, partial curve, poor fit]"
14,CCc1nc2c(c(-c3ccc(Cl)cc3)n1)CCN([S+](=O)([O-])c1c(C)noc1C)CC2,"inconclusive: 89.1 µM [inhibitor, single point]"
15,O=C(NCc1ccc(F)cc1)c1ccc2nnc(-c3ccc(OC(F)(F)F)cc3)n2c1,"inconclusive: 39.8 µM [inhibitor, full curve, poor fit]"
16,O=C(c1cc(COc2ccc3c(c2)OCO3)[nH]n1)N1CCCC1c1ccccn1 (stereo unspecified),inactive
17,Cn1cc(CC(=O)N2CCCc3ncc(C(=O)NCc4ccoc4)cc32)c2ccccc21,"inconclusive: 100 µM [inhibitor, partial curve, poor fit]"
18,CCc1nn(-c2ccccc2)c(Oc2cccc(C)c2)c1CCC(=O)N1CCOCC1,active: 39.8 µM
19,COc1ccc(CN2CC(c3nc(Cc4cccnc4)no3)C2)c(OC)c1,"inconclusive: 17.8 µM [inhibitor, full curve, poor fit]"
20,CCN(C(=O)CN1C(=O)NC2(CCC(C(C)(C)C)CC2)C1=O)c1cccc(C)c1 (stereo unspecified),"inconclusive: 22.4 µM [inhibitor, full curve, poor fit]"
21,CCn1nccc1C(=O)N1CCCCCC1c1nnc(-c2ccccc2)o1 (stereo unspecified),"inconclusive: 50.1 µM [inhibitor, partial curve, poor fit]"
22,CNC(C)c1cccc(F)c1 (stereo unspecified),inactive

row,SMILES,Potency
1,O=C(c1ccc(F)cc1)N1CCC(N2CC3CCCN3C2=O)CC1 (stereo unspecified),"inconclusive: 112 µM [inhibitor, partial curve, poor fit]"
2,O=C(NC1CCCN(c2ccc3nnc(-c4ccccc4)n3n2)C1)c1ccccc1Cl (stereo unspecified),"inconclusive: 89.1 µM [inhibitor, partial curve, poor fit]"
3,COc1ccccc1-c1cn2c(n1)CO[C@@H](CNCc1ccc(F)cc1)C2,active: 70.8 µM
4,N#Cc1cccc(CN2CCOC[C@H]2c2ncc(-c3ccc(F)cc3)[nH]2)c1,active: 63.1 µM
5,CCc1nc(-c2c3n(c(=O)n(CC(=O)Nc4cc(C)on4)c2=O)CCCC3)no1,inactive
6,COc1ccccc1-c1ccc(CN2CCC(NC(=O)Nc3ccccc3F)C2)cc1 (stereo unspecified),active: 28.2 µM
7,O=C([C@@H]1C[C@@H](O)[C@H](O)[C@@H]2NC(=S)N(c3ccc4c(c3)OCO4)[C@@H]21)N1CCOCC1,inactive
8,O=C(Nc1cccc(Br)c1)C1CC(=O)N(c2n[nH]c3cccc(F)c23)C1 (stereo unspecified),"inconclusive: 89.1 µM [inhibitor, single point]"
9,Cn1c(CN2CCOC[C@H]2c2ncc(-c3ccc(Cl)s3)[nH]2)nc2ccccc21,"inconclusive: 79.4 µM [inhibitor, partial curve, poor fit]"
10,COC(C(=O)N1CC(=O)N(Cc2cccnc2)CC(OCc2ccccc2)C1)c1ccccc1 (stereo unspecified),inactive
11,Cn1ncc2c(C(=O)NCCCc3ccccc3)cc(-c3ccc([S+](C)(=O)[O-])cc3)nc21,active: 50.1 µM
12,O=C(C1=NO[C@@H]2CN(c3ccc(OC(F)(F)F)cc3)C[C@H]12)N1CCOCC1,"inconclusive: 70.8 µM [inhibitor, partial curve, poor fit]"
13,CC(C)(O)CCc1cccc(C(=O)NC2CCN(c3ncccc3C#N)CC2)c1,"inconclusive: 79.4 µM [inhibitor, partial curve, poor fit]"
14,COCc1nc(C2CCN(C(C)=O)C2)no1 (stereo unspecified),inactive
15,Cc1cc(C(=O)N2C[C@@H](COCC(N)=O)[C@H](c3ccncc3)C2)c(C)o1,inactive
16,COc1ccc(CNC(=O)C[C@@H]2CCNC[C@@H]2Cc2cc(CN3CCOCC3)on2)cc1,inactive
17,Cn1ncc2c(C(=O)NCc3ccc(F)cc3)cc(-c3ccc(C(F)(F)F)cc3)nc21,"inconclusive: 44.7 µM [inhibitor, partial curve, poor fit]"
18,Cc1nc(C)c(C(=O)N2CCC(N3C(=O)C4(CCCC4)C3c3ccccc3)CC2)s1 (stereo unspecified),"inconclusive: 50.1 µM [inhibitor, partial curve, poor fit]"
19,CC(=O)NCCc1ccc(CC2CCN(S(=O)(=O)N(C)C)CC2)cc1,"inconclusive: 35.5 µM [inhibitor, partial curve, poor fit]"
20,C[C@@H]1CN(Cc2nc3c(n2Cc2ccccc2)C(=O)N(Cc2ccccc2F)CCN3)C[C@H](C)O1,"inconclusive: 44.7 µM [inhibitor, partial curve, poor fit]"
21,CCc1nnc2ccc(N3CCN(C(C)C)CC3)nn12,inactive
22,COc1ccc(S(=O)(=O)NC[C@H]2COCc3nc4c(C)cccc4n32)cc1,"inconclusive: 35.5 µM [inhibitor, partial curve, poor fit]"
